Data on one molecule can be found in patent US20240294623A1.

For the test, the target named is latent TGFβ1 from human, rat, and cynomolgus monkey. The test can be described thus: cell-based or functional assay.

B1: Ab6 (antibody)
heavy: EVQLVESGGGLVQPGGSLRLSCTASGFTFSSFSMDWVRQAPGKGLEWVSYISPSADTIYYADSVKGRFTISRDNAKNTLYLQMNSLRAEDTAVYYCARGVLDYGDMLMPWGQGTLVTVSSASTKGPSVFPLAPCSRSTSESTAALGCLVKDYFPEPVTVSWNSGALTSGVHTFPAVLQSSGLYSLSSVVTVPSSSLGTKTYTCNVDHKPSNTKVDKRV[letters of human IgG4 Fc with S228P (EU numbers) not shown]
light: DIQMTQSPSSLSASVGDRVTITCQASQDITNYLNWYQQKPGKAPKLLIYDASNLETGVPSRFSGSGSGTDFTFTISSLQPEDIATYYCQQADNHPPWTFGGGTKVEIKRTVAAPSVFIFPPSDEQLKSGTASVVCLLNNFYPREAKVQWKVDNALQSGNSQESVTEQDSKDSTYSLSSTLTLSKADYEKHKVYACEVTHQGLSSPVTKSFNRGEC
Turning to B1, the IC50, inhibition of latent TGFβ1 activation (LN229 transfectants with CAGA12 reporter cells) is 1.02 to 1.11 nM.
